Results: PubChem BioAssay (NCATS)
Several values for one entry are separate records, joined by “and”; a condition that tells them apart may be missing. Equal entries are not always repeated. The inconclusive results got no clear call from the source; some entries with a clear call stand among them for comparison. A potency beside an inconclusive call is a rough fit, not a confirmed value. More than one record can exist for a structure, and the calls need not agree. Activity calls are given as the source filed them. Calls follow the shape of the dose curve; as a rule, active = well fitted activation curve with a large enough effect; inconclusive = small, poorly fitted or top-dose-only effect; inactive = no such curve, though single readings can be large or run the other way.

Molecular target: Cellular tumor antigen p53 (Homo sapiens) (UniProt P04637)
Sequence of UniProt P04637 (P04637 whole entry, looked up): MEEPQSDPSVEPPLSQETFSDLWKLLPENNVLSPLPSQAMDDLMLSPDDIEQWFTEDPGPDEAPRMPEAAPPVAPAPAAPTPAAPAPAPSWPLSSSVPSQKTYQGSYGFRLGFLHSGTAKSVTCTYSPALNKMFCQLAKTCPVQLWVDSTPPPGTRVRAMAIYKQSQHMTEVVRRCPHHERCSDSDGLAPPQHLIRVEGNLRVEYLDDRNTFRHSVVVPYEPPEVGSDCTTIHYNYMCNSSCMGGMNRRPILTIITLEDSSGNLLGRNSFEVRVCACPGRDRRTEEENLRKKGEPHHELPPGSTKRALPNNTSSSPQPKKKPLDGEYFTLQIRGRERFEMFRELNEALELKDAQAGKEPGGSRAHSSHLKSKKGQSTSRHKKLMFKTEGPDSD
Assay: Primary qHTS for small molecule compounds that upregulate eGFP-tagged delta133p53alpha (in N-terminal) cells. (AID 2060322);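 also: cells pre-induced with doxycycline then dosed without doxycycline; nearly all actives have a fitted effect of over 75% in size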;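 as to activation: series mostly up to about 56 µM; 0% = DMSO vehicle and 100% = reference activator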
Conditions: NCI-H358 eGFP-delta133p53alpha fluorescence, 24 h; activation: stronger effect = higher value
In short: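 NCI-H358 cells pre-induced 24 h with 10 ng/ml doxycycline for eGFP-delta133p53alpha, plated dox-free and exposed 24 h at 37C to titrated compounds. Fixed, Hoechst-stained; gated GFP peak intensity by laser scanning cytometry, normalized to DMSO (0%) and 57.5 uM 5-azacytidine (100%).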
Potency is read from the fitted curve at half-maximal effect; tags tell the direction and shape of the fitted curve.

| SMILES | Potency | activation |
| --- | --- | --- |
| CCOc1cc(C=C2C(=O)N(c3ccccc3)N=C2C)cc(Cl)c1OCC(=O)OC | inconclusive: 3.85 µM [activator, full curve, poor fit] | – |
| C=C1C(=O)O[C@H]2/C=C(/C)[C@@H](OC(C)=O)C/C=C(\C)C[C@@H](OC(=O)/C(=C/C)COC(=O)/C(=C/C)CO)[C@@H]12 | inconclusive: 18.5 µM [activator, single point] | – |
| CCCCC(C=O)NC(=O)C(CC(C)C)NC(=O)OCc1ccccc1 (stereo not given) | inconclusive: 6.85 µM [activator, partial curve, poor fit] | – |
| Cc1onc(-c2ccccc2)c1C(=O)N[C@@H]1C(=O)N2[C@@H](C(=O)O)C(C)(C)S[C@@H]12 | – | inactive: -7.66% |
| CC(C)(O)C1Cc2c(ccc(C(=O)CCc3ccccc3)c2O)O1 (stereo not given) | inconclusive: 0.83 µM [activator, full curve, poor fit] | – |
| CNS(=O)(=O)c1ccccc1Nc1nc(Nc2ccc(N3CCN(C)CC3)cc2OC)ncc1Cl | active: 21.3 µM | – |
| OC[C@H]1O[C@@H](Oc2ccccc2)[C@H](O)[C@@H](O)[C@@H]1O | – | inactive: -0.893% |
| O=C1NC(Cc2c[nH]c3ccccc23)C(=O)NC1Cc1c[nH]c2ccccc12 (stereo not given) | – | inactive: 14.5% |
| CC1(CO)CC2C(O)C3=C(CC(C)(O)C2C1)C(=O)OC3 (stereo not given) | – | inactive: -12.2% |
| Nc1nc2c(ncn2CCC(CO)CO)c(=O)[nH]1 | inconclusive: 4.9 µM [activator, full curve, poor fit] | – |
| CC(C)(O)[C@@H]1CC[C@]2(CO)[C@@H](O)CC[C@](C)(O)[C@H]2[C@@H]1O[C@@H]1O[C@H](CO)[C@@H](O)[C@H](O)[C@H]1O | – | inactive: 1.53% |
| CC(C)(C)NC(=O)[C@H]1CN(Cc2cccnc2)CCN1C[C@@H](O)C[C@@H](Cc1ccccc1)C(=O)N[C@H]1c2ccccc2C[C@H]1O | – | inactive: 18.3% |
| CC1C(OC(=O)c2ccccc2)C(O)C2C(C(=O)O)=COC(OC3OC(CO)C(O)C(O)C3O)C12 (stereo not given) | – | inactive: -16% |
| C=C1C(=O)OC2/C=C(\C)CC/C=C(\C)CC(OC(C)=O)C12 (stereo not given) | active: 26.9 µM | – |
| Cc1cccc(OCC(O)CNC(C)(C)C)c1C (stereo not given) | inconclusive: 1.55 µM [activator, full curve] | – |
| C[C@H](CCC(=O)O)[C@H]1CC[C@H]2[C@@H]3C[C@H](O)[C@@H]4C[C@H](O)CC[C@]4(C)[C@H]3CC[C@]12C | – | inactive: 1% |
| CC(C)NC[C@H](O)COc1ccc(CC(N)=O)cc1 | – | inactive: -18.8% |
| CC(=O)N[C@@H]1[C@H](O[C@@H]2c3ccc(c(Cl)c3)Oc3cc4cc(c3O[C@H]3O[C@H](CO)[C@@H](O)[C@H](O)[C@H]3NC(=O)CCCCCCCC(C)C)Oc3ccc(cc3Cl)C[C@H]3NC(=O)[C@H](N)c5ccc(O)c(c5)Oc5cc(O)cc(c5)[C@H](NC3=O)C(=O)N[C@H]4C(=O)N[C@H]3C(=O)N[C@@H]2C(=O)N[C@@H](C(=O)O)c2cc(O)cc(O[C@H]4O[C@H](CO)[C@@H](O)[C@H](O)[C@H]4O)c2-c2cc3ccc2O)O[C@H](CO)[C@@H](O)[C@@H]1O | – | inactive: 25.3% |
| C=C1C(=O)O[C@@H]2/C=C(\CO)CC/C=C(\CO)[C@H](OC(C)=O)C(OC(=O)C(C)CC)C12 (stereo not given in full) | inconclusive: 8.28 µM [activator, single point] | – |
| CC(=O)C1=C(O)C2c3c[nH]c4cccc(c34)CC2C(C)(C)N(C)C1=O (stereo not given) | inconclusive: 12 µM [activator, partial curve, poor fit] | – |

| SMILES | Potency | activation |
| --- | --- | --- |
| Nc1nonc1C(=Nc1ccc(F)c(Cl)c1)NO | – | inactive: -6.33% |
| CC[C@H](C)[C@H](NC(=O)[C@H]([C@@H](C)CC)N(C)C(C)=O)C(=O)N[C@H](C(=O)N[C@@H](CC(C)C)C(=O)[C@@]1(C)CO1)[C@@H](C)O | inconclusive: 0.0757 µM [activator, full curve, poor fit] | – |
| O=C(C=Cc1ccc(O)cc1)c1ccc(O)cc1O | – | inactive: -12.8% |
| CCn1c2ccccc2c2cc(Nc3ccnc(NCCCN4CCOCC4)n3)ccc21 | inconclusive: 30.1 µM [activator, partial curve, poor fit] | – |
| Oc1c(Br)cc(Br)c2cccnc12 | inconclusive: 21.9 µM [activator, single point] | – |
| CC(=O)NCC(=O)N1[C@H]2CC[C@H]1c1cc(Nc3ncc(C(F)(F)F)c(NC4CCC4)n3)ccc12 | – | inactive: 32.7% |
| Cc1nccn1CC1CCc2c(c3ccccc3n2C)C1=O (stereo not given) | active: 34.7 µM | – |
| C=C1C(=O)O[C@@H]2C[C@H](C)[C@@H]3CC(=O)[C@H](O)[C@@]3(C)C[C@H]12 | inconclusive: 23.9 µM [activator, single point] | – |
| Nc1nc(NCC2CCC(CNS(=O)(=O)c3cccc4ccccc34)CC2)nc2ccccc12 (stereo not given) | inconclusive: 37.9 µM [activator, single point] | – |
| C[C@@H]1CCO[C@H]2Cn3cc(C(=O)NCc4ccc(F)cc4F)c(=O)c(O)c3C(=O)N12 | inconclusive: 43.2 µM [activator, single point] | – |
| CC(C)[C@@H]1CC[C@@H](C)C[C@@H]1P(=O)(c1ccccc1)c1ccccc1 | – | inactive: -3.04% |
| CC(NC(=O)c1ccccc1N=Cc1c(O)ccc2ccccc12)c1ccccc1 (stereo not given) | active: 43.2 µM | – |
| Oc1ccc(Cl)cc1Sc1cc(Cl)ccc1O | inconclusive: 24.6 µM [activator, single point] | – |
| COc1cc2c(Oc3ccc(NC(=O)C4(C(=O)Nc5ccc(F)cc5)CC4)cc3F)ccnc2cc1OCCCN1CCOCC1 | inconclusive: 17.2 µM [activator, partial curve, poor fit] and active: 7.57 µM | – |
| CCN1CCN(Cc2ccc(NC(=O)c3ccc(C)c(NC(=O)c4cncc(-c5cccs5)c4)c3)cc2C(F)(F)F)CC1 | active: 26.9 µM | – |
| NC(=O)Nc1cc(-c2cccc(F)c2)sc1C(=O)N[C@H]1CCCNC1 | inconclusive: 432 nM [activator, full curve, poor fit] and active: 8.49 µM | – |
| CC1(C)S[C@@H]2[C@H](NC(=O)C(C(=O)O)c3ccccc3)C(=O)N2[C@H]1C(=O)O (stereo not given in full) | inconclusive: 13.8 µM [activator, partial curve, poor fit] | – |
| NC(=O)C(c1ccccc1)(c1ccccc1)[C@@H]1CCN(CCc2ccc3c(c2)CCO3)C1 | active: 19.5 µM | – |
| CC1=C(C(=O)OC(C)C)C(c2cccc([N+](=O)[O-])c2)C(C(=O)OC2CN(C(c3ccccc3)c3ccccc3)C2)=C(N)N1 (stereo not given) | inconclusive: 38.9 µM [activator, single point] | – |
| CC1=CC(=O)C2C(C)(C)CCCC2(C)C12CCC1(COC(=O)C1)O2 (stereo not given) | inconclusive: 1.32 µM [activator, full curve] | – |
